The supplement of paper PMC3334620
The full ranking holds about 33,000 sequences; the median of “E-score (-0.5 to 0.5)” is about -0.036, and the highest 2% start at about 0.37. This is one part of the list.

Target: T1, Yer064c (UniProt P40041)
T1 sequence: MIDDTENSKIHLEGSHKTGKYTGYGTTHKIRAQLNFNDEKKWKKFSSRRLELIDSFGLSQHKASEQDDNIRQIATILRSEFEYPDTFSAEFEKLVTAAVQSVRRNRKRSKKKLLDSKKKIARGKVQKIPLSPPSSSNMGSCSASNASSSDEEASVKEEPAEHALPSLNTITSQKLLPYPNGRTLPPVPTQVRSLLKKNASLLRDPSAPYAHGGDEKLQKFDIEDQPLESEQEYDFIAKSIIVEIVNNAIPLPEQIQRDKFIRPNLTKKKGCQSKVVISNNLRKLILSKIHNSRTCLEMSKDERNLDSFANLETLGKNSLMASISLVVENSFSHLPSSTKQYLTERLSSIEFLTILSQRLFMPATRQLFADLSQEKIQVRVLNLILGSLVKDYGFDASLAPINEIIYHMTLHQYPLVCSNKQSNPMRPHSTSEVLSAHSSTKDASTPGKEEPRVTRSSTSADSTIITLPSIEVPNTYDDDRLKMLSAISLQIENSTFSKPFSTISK
Test: PBM E-score (8-mer binding enrichment) (E-score (-0.5 to 0.5)); higher = stronger / more preferred TF binding; most listed sequences are background and not binding sites
Conditions: protein concentration: 200 nM; construct: GST-full length
How it was run: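 Using PURExpress in vitro transcription/translation, GST-tagged yeast transcription factors were made in full-length or DNA-binding-domain form. These were applied at about 100-200 nM to double-stranded universal all-10-mer Agilent arrays, and bound protein was detected with fluorescent anti-GST. Scans were normalised with masliner before the Universal PBM Analysis Suite assigned E-scores to ungapped eight-base words pooled with their reverse complements.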

Sequence | PBM E-score
CCCTTGCG | -0.21
AGTGTATC | 0.106
CGCAAGTC | 0.0971
AGAGGCGG | -0.16
CTACCCGA | 0.0299
ATGACCGA | -0.0163
ATTTTCTA | 0.0886
GGTACCAA | -0.271
AAAAGTTC | 0.0665
CGGGCACC | -0.183
AAACTCTG | 0.0203
CCCTAGGC | -0.191
CGTACTAG | 0.0604
GGACCTTA | -0.0995
TAGTGAAA | -0.00449
CACTGTCC | -0.0314
GTACTTTA | 0.0454
CCCAGCCG | -0.105
CATTTGAA | 0.126
CTCTCCGC | -0.0102
AACTGATA | 0.119
CTGCAACC | -0.0964

Sequence | PBM E-score
CGTGCTGC | -0.205
AATAGATG | 0.104
GTTAGTTA | 0.165
ACACTCGA | 0.0239
GCCGAGCC | -0.128
AGGTAGAA | -0.197
AAAAGGGC | -0.0803
CGAGTTGA | 0.143
GCGCATCA | 0.0767
GCACGGAA | -0.0673
GGGACTAA | 0.323
AAAGGTGC | -0.21
AGCTGCTC | -0.138
ATCGTACC | -0.0803
AAGTCCAA | 0.0178
CAGCTTAC | 0.0501
GGTAGGCA | -0.123
CACGCAAA | -0.155
AATTTCCA | 0.011
TACAGGGA | 0.0442
AAGCGACC | -0.161
CGTCGGAC | -0.065

Sequence | PBM E-score
AGAACTGG | -0.0701
GGGGGCTA | -0.277
AACGACCA | 0.0633
AATGGCAT | 0.0278
AATACTGA | -0.0813
ATGCTTCA | -0.153
GGAGGACA | -0.163
GGACCAGA | -0.189
ACATACGG | -0.077
GGTCTAAA | 0.00226
CTCCACCA | -0.0811
TAAGACCA | 0.112
CGAGCTGC | -0.221
ACTTTCTA | -0.00055
GAAACAAC | -0.16
AATGAGCG | -0.252
CGATATCC | -0.0948
ACGGCGTC | -0.3
CGTATAAC | 0.0482
GCGTCCAC | -0.189
AATTGGTG | -0.0299
ATACTGCC | -0.16

Sequence | PBM E-score
GCTTAAAA | -0.0109
CATTTCCA | 0.116
CCACCTTA | -0.125
CAGTGTCC | -0.253
GTCAGGAA | 0.167
GTAAAATA | 0.0278
ACGCTGAT | 0.223
AACCGGCT | -0.258
ATAGCTTG | 0.0471
CTCGCCCC | -0.281
ATAATAAG | 0.00074
TAGTAAGA | 0.122
AGGCTAAC | 0.0621
CCTCACTC | -0.077
CGGCGGTC | -0.249
CAACACCC | 0.0592
GTGTTGTA | 0.0759
CTCCAGAA | -0.118
ACATCTAT | 0.0442
CTCGGGGA | -0.0158
